# Assay results reported in the supplement of paper PMC4967469.
# pIC50: −log10 of the molar value. Lines with a small IC50 respond at low doses; a limit (>, <) means that the fit lies beyond the doses tested. For AUC the same curve is integrated over the 256-fold range of doses and scaled to a fraction: 1 means no effect, lower means more sensitive. For part of these data: An inferred top dose is not printed in the source and was worked back from the curve model.
# Legend:
# Assay in all cases: Viability of human cancer cell lines after 72 h of drug (GDSC screen)
# XMD15-27 = compound: C=CC(=O)Nc1ccc(C(=O)c2sc(Nc3ccc(N4CCN(C)CC4)cc3OC)nc2N)cc1 [XMD15-27]; conditions: top dose 10.24 µM; top dose inferred
# Method: (§1)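 Human cancer cell lines in 384-well plates, medium with 10% serum, drug for 72 h over a 256-fold dose range (nine 2-fold or five 4-fold steps up to the top dose). Adherent lines were fixed and stained with the nucleic acid dye Syto60, suspension lines read with resazurin; signal relative to control wells, capped at 0 and 100%. One two-parameter sigmoid per drug and line, fitted in a mixed model over all curves with the slope shared within a line.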
# SL 0101-1 = compound: CC(=O)O[C@@H]1[C@@H](OC(C)=O)[C@@H](O)[C@H](Oc2c(-c3ccc(O)cc3)oc3cc(O)cc(O)c3c2=O)O[C@H]1C [SL 0101-1]; conditions: top dose 10 µM; top dose inferred
# Method: as §1
# Temsirolimus = compound: CO[C@H]1C[C@@H]2CC[C@@H](C)[C@@](O)(O2)C(=O)C(=O)N2CCCC[C@H]2C(=O)O[C@H]([C@H](C)C[C@@H]2CC[C@@H](OC(=O)C(C)(CO)CO)[C@H](OC)C2)CC(=O)[C@H](C)/C=C(\C)[C@@H](O)[C@@H](OC)C(=O)[C@H](C)C[C@H](C)/C=C/C=C/C=C/1C [Temsirolimus]; conditions: top dose 0.2 µM
# Method: as §1
Cell Line,AUC (XMD15-27),pIC50 (XMD15-27),AUC (SL 0101-1),pIC50 (SL 0101-1),AUC (Temsirolimus),pIC50 (Temsirolimus)
"LN-405 (glioma, adherent)",0.984,< 4.99,0.941,< 5.00,0.699,7.27
"DEL (lymphoid neoplasm, suspension)",0.868,5.21,0.994,< 5.00,0.991,< 6.70
"CHL-1 (melanoma, adherent)",0.977,< 4.99,0.913,< 5.00,0.389,8.20
"NCI-H1975 (lung adenocarcinoma, adherent)",0.964,< 4.99,0.983,< 5.00,0.733,7.19
"MONO-MAC-6 (acute myeloid leukaemia, suspension)",0.963,< 4.99,0.956,< 5.00,0.802,6.98
"KYSE-140 (oesophagus, adherent)",0.98,< 4.99,0.984,< 5.00,0.72,7.24
"NCI-H720 (lung carcinoid, suspension)",0.992,< 4.99,0.992,< 5.00,0.866,6.81
"SKG-IIIa (cervix, adherent)",0.983,< 4.99,0.983,< 5.00,0.832,6.71
"OVTOKO (ovary, adherent)",0.968,< 4.99,0.963,< 5.00,0.625,7.52
"NCI-H69 (small cell lung carcinoma, suspension)",0.981,< 4.99,0.986,< 5.00,0.935,< 6.70
"LU-134-A (small cell lung carcinoma, suspension)",0.98,< 4.99,0.984,< 5.00,0.928,< 6.70
"RH-1 (rhabdomyosarcoma, adherent)",0.979,< 4.99,0.978,< 5.00,0.919,< 6.70
"BT-20 (breast, adherent)",0.982,< 4.99,0.98,< 5.00,0.821,6.81
"C32 (melanoma, adherent)",0.987,< 4.99,0.975,< 5.00,0.817,6.92
"K5 (thyroid, adherent)",0.985,< 4.99,0.985,< 5.00,0.222,8.69
"P30-OHK (lymphoblastic leukaemia, suspension)",0.958,< 4.99,0.991,< 5.00,0.881,6.83
"K2 (melanoma, adherent)",0.982,< 4.99,0.982,< 5.00,0.847,< 6.70
"CA46 (Burkitt lymphoma, suspension)",0.942,< 4.99,0.984,< 5.00,0.893,< 6.70

Cell Line,AUC (XMD15-27),pIC50 (XMD15-27),AUC (SL 0101-1),pIC50 (SL 0101-1),AUC (Temsirolimus),pIC50 (Temsirolimus)
"KP-2 (pancreas, adherent)",0.986,< 4.99,0.959,< 5.00,0.858,6.73
"NCI-H2087 (lung adenocarcinoma, semi-adherent)",0.976,< 4.99,0.975,< 5.00,0.957,< 6.70
"QGP-1 (pancreas, adherent)",0.979,< 4.99,0.977,< 5.00,0.949,< 6.70
"Hey (ovary, adherent)",0.98,< 4.99,0.942,< 5.00,0.752,7.20
"COLO-679 (melanoma, adherent)",0.98,< 4.99,0.985,< 5.00,0.906,< 6.70
"PC-3 [JPC-3] (lung adenocarcinoma, adherent)",0.981,< 4.99,0.981,< 5.00,0.876,< 6.70
"OVISE (ovary, adherent)",0.977,< 4.99,0.948,< 5.00,0.731,7.14
"TE-12 (oesophagus, suspension)",0.939,< 4.99,0.979,< 5.00,0.866,< 6.70
"ES6 (Ewing sarcoma, adherent)",0.961,< 4.99,0.982,< 5.00,0.711,7.24
"SF126 (glioma, adherent)",0.979,< 4.99,0.986,< 5.00,0.533,7.81
"JM1 (B-cell lymphoma, suspension)",0.9,5.00,0.99,< 5.00,0.955,< 6.70
"SKN-3 (head and neck, adherent)",0.978,< 4.99,0.96,< 5.00,0.95,< 6.70
"RCM-1 (large intestine, adherent)",0.985,< 4.99,0.985,< 5.00,0.977,< 6.70
"HCC-827 (lung adenocarcinoma, adherent)",0.97,< 4.99,0.942,< 5.00,0.866,< 6.70
"RPMI-2650 (head and neck, adherent)",0.985,< 4.99,0.964,< 5.00,0.712,7.28
"MES-SA (uterus, adherent)",0.992,< 4.99,0.992,< 5.00,0.827,7.01
"MZ2-MEL (melanoma, adherent)",0.983,< 4.99,0.975,< 5.00,0.259,8.65
"EM-2 (chronic myeloid leukaemia, suspension)",0.977,< 4.99,0.982,< 5.00,0.76,7.10
